{"source": "ChEMBL document CHEMBL4888484", "about": "“Replenishing the malaria drug discovery pipeline: Screening and hit evaluation of the MMV Hit Generation Library 1 (HGL1) against asexual blood stage Plasmodium falciparum ,using a nano luciferase reporter read-out” (2022)", "note": "Among all 150,000 compounds or so, about 540 (0.36%) showed an effect of 50% or more. The list shows a part of the results."}
{"test_system": "Plasmodium falciparum", "assay": "Primary screen in NF54 nanoGlo assay, in single point, at 2uM, 72h; a lower Z score goes with more inhibition", "type": "functional, Erythrocyte", "conditions": "timepoint 72 hour", "units": {"% Inhibition": "%"}}
{"smiles": "C[C@H](NS(C)(=O)=O)C(=O)NC(C)(C)Cc1ccccc1Cl", "% Inhibition": 41, "Z score": -5.88}
{"smiles": "CCOC(=O)[C@H]1CCCN(c2ccc3nnc(CCc4nc(-c5ccccc5C)no4)n3n2)C1", "% Inhibition": -2, "Z score": 0.35}
{"smiles": "Cc1nc(CCCc2ccc(F)cc2)n(CC(C)(C)O)n1", "% Inhibition": -9, "Z score": 1.21}
{"smiles": "CN(C(=O)c1cc(F)ccc1Cl)[C@H]1CCc2nn(C)c(=O)n2CC1", "% Inhibition": -9, "Z score": 1.38}
{"smiles": "Cc1cccc(N(CC(=O)N2CCCCC2)C(=O)[C@H]2CCOC2)c1", "% Inhibition": -15, "Z score": 1.3}
{"smiles": "O=C(c1nn[nH]c1-c1ccccc1)N1CCCOCC1", "% Inhibition": 10, "Z score": -1.42}
{"smiles": "COc1ccc(OCc2nccn2C(F)F)cc1OC", "% Inhibition": -9, "Z score": 0.89}
{"smiles": "COc1ccccc1-c1cc(C(F)(F)F)c2c(C3CC3)nn(CC(=O)O)c2n1", "% Inhibition": -44, "Z score": 5.15}
{"smiles": "C#CCCOC(=O)[C@H](C)NC(=O)C1CCOCC1", "% Inhibition": -8, "Z score": 1.6}
{"smiles": "Cc1c(N2CCC(C(=O)N3CCCC3)CC2)c(=O)n(C)c(=O)n1-c1ccccc1", "% Inhibition": -12, "Z score": 2.26}
{"smiles": "Cc1noc([C@H]2OCC[C@H]2NC(=O)[C@H](C)Oc2cnc3ccccc3c2)n1", "% Inhibition": -13, "Z score": 1.46}
{"smiles": "CCC(OC1CCCC(C)C1)C(=O)N(C)CC1CCN(C)C1", "note": "(stereo unspecified)", "% Inhibition": -6, "Z score": 0.63}
{"smiles": "COc1cc(C)ccc1-c1c(-c2ccccc2)ncn1Cc1cc(C)on1", "% Inhibition": -17, "Z score": 1.61}
{"smiles": "Cc1ccnc(CNC(=O)C[C@H]2CC2(F)F)c1", "% Inhibition": -19, "Z score": 1.73}
{"smiles": "Cc1cc(C)cc(NC(=O)C2[C@H]3C=C[C@@]4(O3)C(C(=O)NC3CCCCC3)N(CCN3CCOCC3)C(=O)[C@@H]24)c1", "note": "(stereo partly specified)", "% Inhibition": -6, "Z score": 0.9}
{"smiles": "CNc1ncccc1C(=O)NCC1(S(C)(=O)=O)CCCC1", "% Inhibition": 6, "Z score": -0.72}
{"smiles": "CCc1nccn1CCC(=O)Nc1ccc(N2C(=O)CC[C@@H]2C)cc1", "% Inhibition": -10, "Z score": 1.02}
{"smiles": "Cc1ccc(S(=O)(=O)Nc2ccc(CN3CCC[C@H](C)C3)cc2)o1", "% Inhibition": -7, "Z score": 0.72}
{"smiles": "O=C(NC1CCCOc2cc(F)ccc21)NC1CCCc2occc21", "note": "(stereo unspecified)", "% Inhibition": -4, "Z score": 0.49}
{"smiles": "CCc1ncnc(NC[C@H]2CCNCC2(F)F)c1F", "% Inhibition": -13, "Z score": 2.14}
{"smiles": "CCN(C(=O)CCN1CCC[C@H](C(C)(C)O)C1)c1ccccc1C", "% Inhibition": 8, "Z score": -1.06}
{"smiles": "Cc1n[nH]c(C)c1S(=O)(=O)N(C)C1CCNCC1", "% Inhibition": -13, "Z score": 1.71}
{"smiles": "c1cc(OCCO[C@@H]2CCCCO2)cc(-n2cncn2)c1", "% Inhibition": -10, "Z score": 1.3}
